The labels stand for the following.
B1: LINE1-full (parent)
chain: UACGUAGGUGGUUUUCCCCUGAUAGUGCUAAGGGGGCCUGGAAGUUUGGACUGGGCAGAGCUCAACACAGCGUGGCAAAGUGGCUGUGGCUAGACUGCCUCUCUGGAUUCCUCGUCACUCAGCAGGGCAUCUCUGAGAGAAAUGCC

Read counts are not given, so values of variants with three or more changes are uncertain.

The data set covers variants of B1. Briefly: self-cleavage, relative activity (ratio to wild type); higher = more cleavage; in vitro, sequencing; the parent is a self-cleaving ribozyme.
For A22G C98A C128U U132C, the self-cleavage came to 0.25. Regarding U9A C17A G32A U119C A140U, the self-cleavage worked out at 0.79. U112C A124U A136G: the self-cleavage came out at 1.32. On to A129C A138U C145A, for which the self-cleavage worked out at 1.41. As to U26A G36C U45C U62A A138G A140U, the self-cleavage turned out to be 0.07. As to G11A U29C A121C A141G, the self-cleavage came out at 1.07. In the case of U12C A65C C118A A124G, the self-cleavage turned out to be 0.06.

U20C A31U U112C C116U: the self-cleavage came out at 1.29. U9C G10C U15C A43G: the self-cleavage is 1.41.

U15C A69G G70A A129U: the self-cleavage came out at 0.06. U14C U20C G27A A69G U143A: the self-cleavage was determined as 0.42.

Take U46A U85A A141G: the self-cleavage is 0.08. Consider U91C U112A A138G C146U, for which the self-cleavage turned out to be 0.89. Regarding A2G U87C A124G, the self-cleavage turned out to be 0.92.

As to G11A U115C G135A, the self-cleavage amounted to 1.43. As for A50U U52C U143A, the self-cleavage came to 0.73. As for U13C U29C U112C, the self-cleavage is 0.79. The figure for A94G U109C U132C A141G is 0.61. Regarding U15C A67C G127U, the self-cleavage came out at 0.1. For U96C U119C U134C, the self-cleavage stood at 0.32. For A42G A77U U108A, the self-cleavage came to 0.52.

With A22C A77G C120U, the self-cleavage is 1.99. The figure for U20C A42G A57U A107G is 0.08; for U1C G21A A142G it is 1.07; for G32U A79G U119C it is 1.19. As for U14C A78G U119C, the self-cleavage was 0.6. For A30U G40U U73C the value was 1.25; for C61G A65G U96C U109C A142G, 0. For the variant A22G G106A U134A A136C, the self-cleavage amounted to 0.8.

For the variant U13C A42U U47C U102C C128U A136G, the self-cleavage is 1.16. In the case of C38U U108C U130C, the self-cleavage came to 1.37.

With A79G A94G A141G, the self-cleavage was 0. In the case of U29A A31U U73C U100C, the self-cleavage turned out to be 0. G32A G33A U104C: the self-cleavage came out at 1.05. For the variant U14C U26C A57G A65U U96A, the self-cleavage was determined as 0.56. As to G35A A43G G93C, the self-cleavage came to 0.04. As for U46C A77U U87A G127C A141G, the self-cleavage turned out to be 0.07. As to U62C U100A U143G, the self-cleavage turned out to be 0.05. For U13C U39A C120A the value was 2.21.

With C3U A22G A30U U85G, the self-cleavage amounted to 0.07. As to U29C U47A A94G, the self-cleavage stood at 0.46. As for G55U U62C U134C, the self-cleavage was determined as 0.01.

As for U20C A69G A129U A136G, the self-cleavage was 1.08. On to U12G G40A A92G A107G U130C A138U, for which the self-cleavage came to 0.24. For the variant U13C A77G U81A, the self-cleavage is 2.81. For C19U U20C C66U the value was 0.03; for U9A U20C C113U A129U C145A, 1.17.

For U20C U81A A117G, the self-cleavage is 1.4. The figure for C37U A65G A117G is 0; for A42G C101U A129C U143C it is 1.88. For U14C U26A U45C G126A A136G U143C the value was 0.67.

G35U U73A A141U: the self-cleavage was 1.34. For the variant U47A A50G A69G U91A U119A, the self-cleavage stood at 0.4.

As for U5G U45C A50G, the self-cleavage was found to be 1.1. As for U62C U73A A141G, the self-cleavage was found to be 0.01. In the case of A43G U45C U108C, the self-cleavage amounted to 0. Regarding U46A U73C A78G G82A A107G, the self-cleavage is 1.19. G34U A59G A64G A121U: the self-cleavage is 0.1. For the variant A57U C76U U132C, the self-cleavage was determined as 0.09. As to U14C A92G U115C, the self-cleavage turned out to be 0.

For A67G A78G A140G A141G, the self-cleavage stood at 0.21.

U47A A57G U73C U115A: the self-cleavage amounted to 0.77.

For U47A A107G U108C U130C U143C, the self-cleavage stood at 2.12. For A30U A59G U73A the value was 0.11.

Consider C37U U52C U91A, for which the self-cleavage was 0.59. As to A30U A129U U130C, the self-cleavage stood at 0.15. Regarding A57G A69G G106A, the self-cleavage is 0.3.

As to U15A U23C U73G U108C U130A, the self-cleavage amounted to 0. For U5C U26G A77G C84U the value was 0.3; for A43G A59G U119A, 0; for U12C U45C A141G, 1.11. For the variant U14C G32A G44A, the self-cleavage was 0.68.

Take U12G C19U C118U: the self-cleavage is 2.57.

Take A42G A64U G89A: the self-cleavage is 0.05.

A43G A79G U102C G114A: the self-cleavage was found to be 1.43. Consider A64G U109C G126U, for which the self-cleavage was 0.26.

Take U5C U45C A136U A142G: the self-cleavage stood at 1.5. For U15C U102C U115A A138G A141G the value was 2.19; for G60C C71A U108C U134A, 0.03.

U39A U87C C128G: the self-cleavage is 0.27.

Consider A79G U87A U112A A117C C146U, for which the self-cleavage is 0.07. On to U39A U87A U108C, for which the self-cleavage came out at 0.12. As to C18U G36A U104A A107G U112C A138G, the self-cleavage was found to be 1.37. The figure for U47C A65G U73A A121U U132A is 0.05; for A69G U91C A136U it is 0.57; for A67U U96C U108C it is 0.25. For U14C U73G U134C A141G, the self-cleavage stood at 2.19. In the case of U1C A2G U47C U119C, the self-cleavage worked out at 0.74.

U26C G36A A77G A79G A107U: the self-cleavage stood at 0.27.

Consider C18A U52C U134C A142G, for which the self-cleavage was 1.18. Regarding U46C A121G A136G, the self-cleavage amounted to 2.22. As for A24U A65U U102A, the self-cleavage came out at 0.04. Take C37G U102C U112C: the self-cleavage came to 1.44. As to A57G U100G U109A A117C U119A, the self-cleavage is 1.38.

On to U9A A31U U112C, for which the self-cleavage is 0.86.

In the case of U81A C99U A129U, the self-cleavage came out at 0.78. C63U A65G A78G: the self-cleavage amounted to 0.06. Regarding U20G A50U U100G, the self-cleavage was 0.65. With U39C U102G U115A, the self-cleavage worked out at 0.66.

For U15C A67U C128U, the self-cleavage came out at 0.23. As for A57G A59G A79G, the self-cleavage came out at 0.85. For A43G G127A A136G the value was 1.34; for U1C U39A U62C C71A, 0.03; for G34U G74A U81C, 1.01.

As to U5A A50G A121G C146U, the self-cleavage amounted to 1.84.

With U15C U20C A77U, the self-cleavage was 1.86. For U14C C71U U112C the value was 0.8; for G7U U13C G35A A107G, 1.06; for U23C A59G C131U, 0.06.

As to U45C U46A U91A U109C U112C U115A U119A, the self-cleavage was 0.56. Regarding C19A U73C A138G, the self-cleavage was 1.19.

Take U20C U87A U108C: the self-cleavage is 0.1. For the variant U62C U85C U108C, the self-cleavage came out at 0. For U5C A31U A141G the value was 0.86; for U12G A43G U130C G144A, 0.24; for A50G A77U A142G, 0.99. With U14C U45C U143C, the self-cleavage amounted to 1.62. In the case of A79U A92G U143C, the self-cleavage is 0. As to U45C U81A U102C, the self-cleavage stood at 1.93. For the variant U20A U132C A142G U143A, the self-cleavage stood at 1.14. As for G10A U20C A78G C113A, the self-cleavage came out at 1.43. Consider U1A C19U A77U U85A A94G, for which the self-cleavage worked out at 0.27.

For the variant U52C A57U U119C A136G A141G, the self-cleavage worked out at 0.45. Consider G8U A64G U130C, for which the self-cleavage worked out at 1.08. Turning to U20C U87G A138G, the self-cleavage worked out at 0.14. With U5C U15C U46A, the self-cleavage stood at 0.35. G10A U15A A65G U109C: the self-cleavage was found to be 0.22.

In the case of A94G A136G A142G, the self-cleavage was found to be 0.49.

Turning to U5A C16U C28A, the self-cleavage was 0.82. As for A22C U52A A64G, the self-cleavage amounted to 0.17. Take U23C U29C U47A C98U U119C: the self-cleavage turned out to be 1.14.

Turning to U1G U12C C38U U87C U112C A117G, the self-cleavage turned out to be 0.

As for A31G G34A U85C G122C, the self-cleavage was determined as 0.21. For G83A U112A G125U the value was 0.83. Take U13C A69G U73A: the self-cleavage is 0.08. Turning to U73C U87C U115C, the self-cleavage is 0. As to U13C U23A G33A A43G, the self-cleavage was determined as 0.72. Consider U45C A92G C95U A136G, for which the self-cleavage amounted to 0.03. Regarding U13C A69G A117G, the self-cleavage turned out to be 0. For U29G U104A A124U, the self-cleavage was 0.95. A22G U26A A69G: the self-cleavage came to 0.56.

As to U9C U20C U45C, the self-cleavage worked out at 1.08. With U9A G40A A57G, the self-cleavage worked out at 0.5.

For U13C U20C G75A, the self-cleavage is 0.57. As for A57G C68U A121G, the self-cleavage came out at 0.07. Regarding U39A A77G U115C A142G, the self-cleavage was 2.21.

For U47A A77G C84A A141G, the self-cleavage came to 0.13. In the case of U12G A57U A94G U109C C128U, the self-cleavage was determined as 0.16.

For A67G A79G A142G, the self-cleavage was 0.

As for A69U U73C A107G U115A A129G A142G, the self-cleavage was 0. For the variant U13A U45C U109C, the self-cleavage turned out to be 1.62. For A22G A57G A59G A65U A94G C113A U119A the value was 0; for U85A U119G A141G, 0.05. For the variant A6U A42G A57G G114A U143C, the self-cleavage is 0.69. The figure for U13C A50G C120U is 1.41. For the variant U85A U104C U108C U109C, the self-cleavage was determined as 0.36. As to U20C A24U A57G A129U C133U U134C, the self-cleavage turned out to be 1.11.

Turning to A43G U52A G74C, the self-cleavage stood at 1.52. The figure for U14C A59G U109C U130C is 0.48; for C19A U39C G86A U109A it is 0; for U26G A31C A57U U115C A140G it is 0.61. Regarding A78G U115A C116A, the self-cleavage turned out to be 1. Take U14G A124U A129G: the self-cleavage turned out to be 1.37.

Turning to C66U U87C A141G, the self-cleavage worked out at 0.04. For U12G A22U C38U U87A G114A A121G the value was 0.19; for A50G A124G C146G, 0.59; for A67G A129G A140G, 1.15.

The values are drawn from the RNAGym collection of RNA variant scans (doi:10.7554/elife.90254).
